Source: the supplement of paper PMC8821664
Where a name gives a salt, the structure may show the parent alone. The list shows a part of the results. Repeats are few or missing, and single values can be far off.

Test system: Beas-2B AQP5-HiBiT reporter cells
Assay: AQP5-HiBiT luminescence relative to vehicle (ratio to vehicle); higher = higher AQP5-HiBiT protein abundance
Settings: 10 µM; 18 h
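Further: monoclonal Beas-2B line stably carrying CMV promoter-driven AQP5-HiBiT, 5,000 cells per well in 384-well plates, lytic HiBiT plus LgBiT NanoLuc luminescence, FDA-approved drug library screen.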

| Compound | AQP5-HiBiT luminescence |
| --- | --- |
| COc1ccc(C(=O)CC(=O)c2ccc(C(C)(C)C)cc2)cc1 [Avobenzone] | 0.764 |
| C/C(=C\C(=O)OCCCCCCCCC(=O)O)C[C@@H]1OC[C@H](C[C@@H]2O[C@H]2[C@@H](C)[C@H](C)O)[C@@H](O)[C@H]1O [Mupirocin] | 1.22 |
| COCCCC/C(=N\OCCN)c1ccc(C(F)(F)F)cc1 [Fluvoxamine maleate] | 1.15 |
| CC(COc1ccccc1)N(CCCl)Cc1ccccc1 (stereo not given) [Phenoxybenzamine hydrochloride] | 0.927 |
| CNCCCC1c2ccccc2C=Cc2ccccc21 [Protriptyline hydrochloride] | 2.05 |
| CCC[C@H](N[C@@H](C)C(=O)N1[C@H](C(=O)O)C[C@@H]2CCCC[C@@H]21)C(=O)OCC [Perindopril erbumine] | 1.24 |
| COc1cc2nc(N(C)CCCNC(=O)C3CCCO3)nc(N)c2cc1OC (stereo not given) [Alfuzosin hydrochloride] | 1.19 |
| CN1CCC(=C2c3ccccc3CCn3c(C=O)cnc32)CC1 [Alcaftadine] | 0.762 |
| CC(=O)OCC(=O)[C@@]1(O)CC[C@H]2[C@@H]3CCC4=CC(=O)CC[C@]4(C)[C@H]3C(=O)C[C@@]21C [Cortisone acetate] | 0.916 |
| CCCCc1oc2ccccc2c1C(=O)c1cc(I)c(OCCN(CC)CC)c(I)c1 [Amiodarone hydrochloride] | 1.23 |
| COc1ccc2c(c1)c(CC(=O)O)c(C)n2C(=O)c1ccc(Cl)cc1 [Indometacin] | 0.687 |
| COc1nc2ccc(Br)cc2cc1[C@@H](c1ccccc1)[C@@](O)(CCN(C)C)c1cccc2ccccc12 | 1.02 |
| COc1ccc2[nH]c(SCc3ncc(C)c(OC)c3C)nc2c1 [Omeprazole sulfide] | 0.86 |
| CO/N=C(\C(=O)N[C@@H]1C(=O)N2C(C(=O)[O-])=C(C[N+]3(C)CCCC3)CS[C@H]12)c1csc(N)n1 [Cefepime Dihydrochloride Monohydrate] | 1.02 |
| Nc1cccc2c1CN(C1CCC(=O)NC1=O)C2=O (stereo not given) [Lenalidomide (CC-5013)] | 1.17 |
| NS(=O)(=O)c1cc2c(cc1Cl)NCNS2(=O)=O [Hydrochlorothiazide] | 1.13 |
| CN1CCN(C2=Nc3cc(Cl)ccc3Nc3ccccc32)CC1 [Clozapine] | 2.07 |
| CN1CCC(=C2c3ccccc3CCc3cccnc32)CC1 [Azatadine Maleate] | 1.09 |
| CC(C)C(=O)Nc1ccc([N+](=O)[O-])c(C(F)(F)F)c1 [Flutamide] | 0.977 |
| CC(C)[C@H]1CC[C@H](C(=O)N[C@H](Cc2ccccc2)C(=O)O)CC1 [Nateglinide] | 1.06 |

| Compound | AQP5-HiBiT luminescence |
| --- | --- |
| O=C1O[C@H](CO)[C@@H](O)[C@H](O)[C@H]1O [Delta-Gluconolactone] | 0.853 |
| CCOc1ccc2ccccc2c1C(=O)N[C@@H]1C(=O)N2[C@@H]1SC(C)(C)[C@@H]2C(=O)O [nafcillin sodium] | 0.97 |
| Cc1c(OCC(F)(F)F)ccnc1C[S@@+]([O-])c1nc2ccccc2[nH]1 [R-(+)-Lansoprazole] | 1.02 |
| CC1=C(C(=O)O)N2C(=O)[C@@H](NC(=O)[C@H](N)c3ccccc3)[C@H]2SC1 [Cephalexin] | 0.977 |
| CCCCOCCOCCOCc1cc2c(cc1CCC)OCO2 [Piperonyl butoxide] | 0.748 |
| C[N+](C)(C)CC(=O)O [Betaine hydrochloride] | 1.01 |
| CCCCC(=O)N(Cc1ccc(-c2ccccc2-c2nnn[nH]2)cc1)[C@H](C(=O)O)C(C)C [Valsartan] | 0.794 |
| CCCCOc1cc(C(=O)NCCN(CC)CC)c2ccccc2n1 [Dibucaine] | 0.788 |
| CN(C)[C@@H]1C(O)=C(C(N)=O)C(=O)[C@@]2(O)C(O)=C3C(=O)c4c(O)ccc(Cl)c4[C@@H](O)[C@H]3C[C@@H]12 [Demeclocycline hydrochloride] | 0.727 |
| O=C(O)c1cc(-c2ccc(F)cc2F)ccc1O [Diflunisal] | 1.02 |
| CN(C)CCOC(c1ccc(Cl)cc1)c1ccccn1 (stereo not given) [Carbinoxamine Maleate Salt] | 1.52 |
| C[C@]12CC[C@@H]3c4ccc(O)cc4CC[C@H]3[C@@H]1CC[C@@H]2O [Estradiol] | 0.911 |
| COCCOC(=O)C1=C(C)NC(C)=C(C(=O)OC(C)C)C1c1cccc([N+](=O)[O-])c1 (stereo not given) [Nimodipine] | 0.517 |
| Cc1ccc([C@@H]2O[C@H](CO)[C@@H](O)[C@H](O)[C@H]2O)cc1Cc1ccc(-c2ccc(F)cc2)s1 [Canagliflozin] | 0.485 |
| Cc1nc2n(c(=O)c1CCN1CCC(c3noc4cc(F)ccc34)CC1)CCCC2O (stereo not given) [Paliperidone] | 1.18 |
| CCC(=O)O[C@]1(C(=O)SCF)[C@H](C)C[C@H]2[C@@H]3C[C@H](F)C4=CC(=O)C=C[C@]4(C)[C@@]3(F)[C@@H](O)C[C@@]21C [Fluticasone propionate] | 1.03 |
| CCCNC(=O)NS(=O)(=O)c1ccc(Cl)cc1 [Chlorpropamide] | 1.16 |
| CCOC(=O)[C@H](CCc1ccccc1)N[C@H]1CCc2ccccc2N(CC(=O)O)C1=O [Benazepril hydrochloride] | 0.778 |
| C[C@@H](c1nc(-c2ccc(C#N)cc2)cs1)[C@](O)(Cn1cncn1)c1cc(F)ccc1F [Isavuconazole] | 0.693 |
| CC(=O)[C@H]1CC[C@H]2[C@@H]3C[C@H](C)C4=CC(=O)CC[C@]4(C)[C@H]3[C@@H](O)C[C@]12C [Medrysone] | 0.668 |
